From a collection of fitness landscapes (doi:10.1038/s41467-024-54723-y)
The full ranking holds about 18,000 sequences; the median of “TetR repression strength (sort-seq, GFP reporter)” is about 0.23, and the highest 2% start at about 0.68. The list shows a part of the results.

target: TetR (class B, Tn10) (UniProt P04483); assay: TetR repression strength (sort-seq, GFP reporter) (relative to tetO2 = 1); higher = stronger repression; conditions: E. coli
Procedure, shortened: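 In LB with 50 µg/mL chloramphenicol, E. coli SIG10-MAX holding a low-copy library with eight randomized operator positions between a constitutive promoter and sfGFP, plus constitutive TetR, grew for 5 h at 37 °C. FACS then sorted 10^6 cells into 13 fluorescence bins for Illumina sequencing of each bin. Repression strength equals the top bin index plus one less the read-weighted mean bin, normalized to the unaltered operator. Values from three independent transformations were averaged when reads were ≥30 in every replicate and the CV was ≤0.5.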

Chain of UniProt P04483 (P04483 whole entry): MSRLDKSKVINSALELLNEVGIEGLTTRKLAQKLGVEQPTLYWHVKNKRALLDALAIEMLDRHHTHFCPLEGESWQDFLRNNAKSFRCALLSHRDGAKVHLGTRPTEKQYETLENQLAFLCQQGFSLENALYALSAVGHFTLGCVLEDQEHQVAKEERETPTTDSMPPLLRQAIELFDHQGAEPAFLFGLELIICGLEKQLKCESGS

| Sequence | TetR repression strength |
| --- | --- |
| TCCCAGTGAGTAGAAGAGA | 0.282 |
| TCCCGGGTAGTCGCTGAGA | 0.251 |
| TCCCCGGTAGTGGGTGAGA | 0.164 |
| TCCCTCGCAGTTGTTGAGA | 0.0296 |
| TCCCTCTAAGTACGCGAGA | 0.223 |
| TCCCTCGCAGTAGCGGAGA | 0.45 |
| TCCCGCGAAGTCACCGAGA | 0.0691 |
| TCCCTCAAAGTGCGTGAGA | 0.296 |
| TCCCGTATAGTTATCGAGA | 0.0468 |
| TCCCAATTAGTAACGGAGA | 0.0366 |
| TCCCTGTCAGTGACTGAGA | 0.368 |
| TCCCAGGGAGTAGAAGAGA | 0.278 |
| TCCCTGTTAGTGTTGGAGA | 0.228 |
| TCCCGTCAAGTGATTGAGA | 0.233 |
| TCCCAACAAGTGCACGAGA | 0.343 |
| TCCCGCGGAGTAAGTGAGA | 0.111 |
| TCCCGAGGAGTCGTCGAGA | 0.235 |
| TCCCTCACAGTCAGAGAGA | 0.201 |
| TCCCGGTTAGTGTAAGAGA | 0.253 |
| TCCCTAGCAGTGGGAGAGA | 0.151 |
| TCCCTCGAAGTGCTAGAGA | 0.246 |
| TCCCCGGCAGTATTCGAGA | 0.167 |
| TCCCCACCAGTAGTAGAGA | 0.29 |
| TCCCGAAAAGTCGTGGAGA | 0.339 |
| TCCCTAAAAGTCCATGAGA | 0.193 |
| TCCCTTTGAGTCTTGGAGA | 0.199 |

| Sequence | TetR repression strength |
| --- | --- |
| TCCCACGGAGTTAGGGAGA | 0.125 |
| TCCCTCTGAGTACGTGAGA | 0.313 |
| TCCCTTCAAGTGTGGGAGA | 0.387 |
| TCCCGCTCAGTGACAGAGA | 0.715 |
| TCCCGGGGAGTCGTGGAGA | 0.26 |
| TCCCGTTTAGTGTATGAGA | 0.207 |
| TCCCGTCCAGTAGGTGAGA | 0.181 |
| TCCCCACAAGTTGGCGAGA | 0.2 |
| TCCCCTATAGTATAGGAGA | 0.0691 |
| TCCCGGGCAGTTACAGAGA | 0.235 |
| TCCCGCCAAGTGGGGGAGA | 0.395 |
| TCCCTACCAGTTGTTGAGA | 0.168 |
| TCCCGGCAAGTGTCGGAGA | 0.0373 |
| TCCCCTAGAGTCCGCGAGA | 0.332 |
| TCCCTTTTAGTCTGTGAGA | 0.248 |
| TCCCTGTTAGTGGTAGAGA | 0.404 |
| TCCCGCCGAGTTTGGGAGA | 0.184 |
| TCCCGTGTAGTGGGCGAGA | 0.242 |
| TCCCAGGAAGTTCCGGAGA | 0.0651 |
| TCCCTGTCAGTCACCGAGA | 0.664 |
| TCCCTCGGAGTAGTAGAGA | 0.115 |
| TCCCGTAGAGTCAAGGAGA | 0.412 |
| TCCCTTCGAGTTCGGGAGA | 0.176 |
| TCCCGATGAGTGCTCGAGA | 0.361 |
| TCCCCCTGAGTGCGCGAGA | 0.332 |
| TCCCTTCGAGTCGCCGAGA | 0.303 |

| Sequence | TetR repression strength |
| --- | --- |
| TCCCAGAGAGTGCGTGAGA | 0.0296 |
| TCCCGCTGAGTCGACGAGA | 0.264 |
| TCCCGCGGAGTGCTTGAGA | 0.186 |
| TCCCATCGAGTCAATGAGA | 0.0272 |
| TCCCTCTCAGTGCAGGAGA | 0.182 |
| TCCCGTCCAGTGCAGGAGA | 0.191 |
| TCCCAACAAGTGTGTGAGA | 0.207 |
| TCCCGCGTAGTGTGGGAGA | 0.207 |
| TCCCAATGAGTGGGAGAGA | 0.341 |
| TCCCACCAAGTCTCTGAGA | 0.207 |
| TCCCGCGAAGTGGAAGAGA | 0.256 |
| TCCCCGATAGTATCGGAGA | 0.119 |
| TCCCTAATAGTCTTCGAGA | 0.623 |
| TCCCCGCAAGTTAAAGAGA | 0.294 |
| TCCCCCCGAGTGCGGGAGA | 0.215 |
| TCCCTGAGAGTGACTGAGA | 0.216 |
| TCCCATAGAGTGTGCGAGA | 0.125 |
| TCCCTATGAGTGGTTGAGA | 0.13 |
| TCCCCGGAAGTTGCTGAGA | 0.292 |
| TCCCCGACAGTAGGAGAGA | 0.107 |
| TCCCGTGGAGTAAGTGAGA | 0.314 |
| TCCCAGATAGTTGCTGAGA | 0.129 |
| TCCCGTCAAGTGAGTGAGA | 0.14 |
| TCCCCATAAGTGCGGGAGA | 0.392 |
| TCCCATCTAGTACTAGAGA | 0.266 |
| TCCCGATGAGTCCCCGAGA | 0.145 |

| Sequence | TetR repression strength |
| --- | --- |
| TCCCGTAGAGTCGAGGAGA | 0.103 |
| TCCCCTCAAGTCAGGGAGA | 0.104 |
| TCCCGAGAAGTTGGCGAGA | 0.222 |
| TCCCGATCAGTGTATGAGA | 0.168 |
| TCCCCTTGAGTGTGAGAGA | 0.247 |
| TCCCGGGGAGTGAAAGAGA | 0.226 |
| TCCCGTGCAGTCGTGGAGA | 1 |
| TCCCCGGTAGTTCCTGAGA | 0.186 |
| TCCCGCTTAGTCATGGAGA | 0.0661 |
| TCCCGGCGAGTATCTGAGA | 0.309 |
| TCCCGAGAAGTCGGAGAGA | 0.222 |
| TCCCGTATAGTAGCGGAGA | 0.072 |
| TCCCTTCTAGTTATGGAGA | 0.32 |
| TCCCTGGCAGTTGCTGAGA | 0.219 |
| TCCCTATTAGTCAAAGAGA | 0.195 |
| TCCCAGAGAGTGTCAGAGA | 0.097 |
| TCCCTCACAGTTGGGGAGA | 0.125 |
| TCCCTTCTAGTTCACGAGA | 0.413 |
| TCCCGCGCAGTATCGGAGA | 0.207 |
| TCCCTGCTAGTGCTAGAGA | 0.258 |
| TCCCGATCAGTAAGGGAGA | 0.097 |
| TCCCTCCAAGTCGTCGAGA | 0.276 |
| TCCCCCTCAGTAGACGAGA | 0.28 |
| TCCCGGGCAGTGGGCGAGA | 0.253 |
